Values joined by “and” are separate entries in the source; they are usually repeats but may differ in a detail not shown here. Equal entries are not always repeated. About 150 (0.038%) of roughly 390,000 compounds were called active. The shares of active, inactive and inconclusive entries below differ from those in the screen. The call rests on the fitted dose curve; in most records, active means well fitted inhibition curve with a large enough effect; inconclusive means small, poorly fitted or top-dose-only effect; inactive means no such curve, though single readings can be large or run the other way. Potencies beside an inconclusive call are fits to weak or partial responses and may not hold up.
These compounds were tested against Regulator of G-protein signaling 4 (Homo sapiens) (UniProt P49798) (assay: Inhibitors of Regulator of G Protein Signaling (RGS) 4: qHTS). Conditions: Transcreener GDP fluorescence polarization, RGS4-accelerated GTP hydrolysis; series mostly up to 114 µM.
Chain of UniProt P49798 (P49798 whole entry, looked up): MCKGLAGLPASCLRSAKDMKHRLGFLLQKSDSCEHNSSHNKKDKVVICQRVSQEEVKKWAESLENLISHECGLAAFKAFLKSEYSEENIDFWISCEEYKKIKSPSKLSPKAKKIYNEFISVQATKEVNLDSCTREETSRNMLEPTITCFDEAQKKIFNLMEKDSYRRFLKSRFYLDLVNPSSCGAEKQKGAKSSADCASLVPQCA
In short: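 MLSMR compounds (23 nl, pin-transferred) preincubated 10 min at room temperature with a 500nM (2x) first reagent, then RGS4 at 900nM (2x) plus Transcreener GDP mix added; fluorescence polarization (620/688 nm) read before and after 90 min at 30 °C.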
Further: nearly all actives have a fitted effect of over 75% in size.
Potency means the concentration at half of the fitted maximal effect; tags describe the fitted curve by direction and shape.

SMILES | Potency
CCN(CC)CCOC(=O)c1ccc(NC(=O)c2cc3cccc(OC)c3oc2=O)cc1 | inactive
c1cnc(N2CCN(Cc3ccc4c(c3)OCO4)CC2)nc1 | inactive and inconclusive: 474 nM [inhibitor, full curve, poor fit]
CC(C(=O)N1CCCC1)N1CCN(c2ccccc2O)CC1 (stereo not drawn) | inconclusive: 89.1 µM [inhibitor, single point]
COc1cc2c(cc1OC)CN(C(=S)NC(=O)c1ccccc1)CC2 | inconclusive: 56.2 µM [inhibitor, partial curve, poor fit]
FC(F)(F)c1cccc(OCC2CNC(=S)O2)c1 (stereo not drawn) | inactive
COc1ccc(CC(=O)NCC2COc3ccccc3O2)cc1 (stereo not drawn) | inactive
Cc1cc(C)c(-c2csc(Cc3nc(-c4cc5ccccc5oc4=O)cs3)n2)cc1C | inconclusive: 50.1 µM [inhibitor, partial curve, poor fit]
O=C1C=CC(=O)N1 | inconclusive: 44.7 µM [inhibitor, partial curve, poor fit]
CC(=NNC(=S)Nc1cccc(C)c1)c1ccccn1 | inconclusive: 79.4 µM [inhibitor, partial curve, poor fit]
CCC(=O)N1N=C(c2ccc(C)o2)CC1c1ccc(OC)cc1 (stereo not drawn) | inconclusive: 44.7 µM [inhibitor, partial curve, poor fit]
O=C(NCCN1CCCCC1)c1ccc(Cn2c(SCc3ccc(F)cc3)nc3cccnc32)cc1 | inactive
CN(C)c1ccc(CN(Cc2ccco2)C(=O)c2ccc(F)cc2)cc1 | inactive
CCCOC(=O)c1c(NC(=O)C2CCCO2)sc(C(=O)OC)c1C (stereo not drawn) | inconclusive: 17.8 µM [inhibitor, full curve, poor fit]
S=c1[nH]c(-c2ccccc2)cs1 | inconclusive: 17.8 µM [inhibitor, full curve, poor fit]
Cc1ccccc1-c1n[nH]c(=S)n1/N=C/C=C/c1ccco1 | inconclusive: 28.2 µM [inhibitor, full curve, poor fit]
O=C1C=C(O)c2cccc3cccc1c23 | inconclusive: 100 µM [inhibitor, single point]
COc1ccc(NC(=S)Nc2cc(C)[nH]n2)cc1Cl | inconclusive: 100 µM [inhibitor, single point]
COc1ccc(/C=C/c2c([N+](=O)[O-])c(=O)n(C)c(=O)n2C)cc1 | inconclusive: 44.7 µM [inhibitor, partial curve, poor fit]
CCCNC(=O)C1CCC(Cn2c(=O)c3sccc3n(Cc3cccc(OC)c3)c2=O)CC1 (stereo not drawn) | inconclusive: 100 µM [inhibitor, single point]
CCn1c(SCC(=O)c2cc(C)n(-c3ccc(C(=O)OC)cc3)c2C)nnc1-c1cccnc1 | inconclusive: 50.1 µM [inhibitor, partial curve, poor fit]
O=C(CSc1ncccc1-c1nc2ccccc2[nH]1)NC1CC1 | inconclusive: 28.2 µM [inhibitor, full curve, poor fit]
CCCCCCSC1=C(C#N)C(=O)NC2(CCCCC2)S1 | inconclusive: 79.4 µM [inhibitor, partial curve, poor fit]

SMILES | Potency
COc1ccccc1NC(=O)C(=O)NCCC1CCCCN1S(=O)(=O)c1ccc(F)cc1 (stereo not drawn) | inconclusive: 100 µM [inhibitor, single point]
O=C(COC(=O)c1ccccc1C(=O)c1ccccc1)NCc1ccc(F)cc1 | inconclusive: 56.2 µM [inhibitor, partial curve, poor fit]
Cc1ccc(-n2ncc(C(=O)NCCN3CCN(C)CC3)c2C2CCN(C(=O)OC(C)(C)C)CC2)c(C)c1 | inactive
CCN(Cc1cc(=O)n2cc(Cl)c(C)c(Cl)c2n1)Cc1nc2ccccc2c(=O)[nH]1 | inconclusive: 44.7 µM [inhibitor, partial curve, poor fit]
Cc1[nH]c2ccccc2c1-c1nc(N)sc1C | inconclusive: 31.6 µM [inhibitor, full curve, poor fit]
CN1C(=O)CC(=O)N(C)c2cc(S(=O)(=O)N(C)Cc3ccccc3)ccc21 | inconclusive: 89.1 µM [inhibitor, partial curve, poor fit]
CCOC(=O)c1sc(NC(=O)CSc2n[nH]c(-c3ccncc3)n2)c(C#N)c1C | inactive
CCN1C(c2ccccc2)=C(c2ccccc2)S/C1=C\C=C1/SC(=S)N(C)C1=O | inconclusive: 50.1 µM [inhibitor, partial curve, poor fit]
O=C(c1ccco1)N1N=C(c2ccc(Cl)cc2)CC1c1ccco1 (stereo not drawn) | inconclusive: 28.2 µM [inhibitor, full curve, poor fit]
O=C(c1noc2c1CCCCC2)N1CCN(c2ccc(Cl)cc2)CC1 | inactive
O=C(NC(=S)Nc1nc(-c2ccccc2)cs1)c1cccnc1 | inconclusive: 31.6 µM [inhibitor, full curve, poor fit]
CCOC(=O)c1c(C)n(C)c2ccc(OCC(O)CN3C(=O)c4ccccc4S3(=O)=O)cc12 (stereo not drawn) | inactive
CN(CC(=O)NC(=O)NCc1ccccc1)Cc1cccc(Cl)c1Cl | inconclusive: 89.1 µM [inhibitor, single point]
Cc1nc2c(c(=O)c3ccccc3n2C)c(=O)n1-c1ccc(F)cc1 | inactive
COC(=O)C1=C(C(=O)OC)C(c2ccccc2O)c2sc(=O)[nH]c2S1 (stereo not drawn) | inconclusive: 17.8 µM [inhibitor, full curve, poor fit]
CCC(NC(=O)C1CCCO1)c1ccccc1 (stereo not drawn) | inactive
CN(C)S(=O)(=O)c1ccc(N2CCCC2)c(C(=O)NCC(=O)Nc2ccc(F)c(F)c2)c1 | inconclusive: 89.1 µM [inhibitor, single point]
O=C(Cc1ccccc1)Nc1ccc(N2CCCC2)cc1 | inconclusive: 89.1 µM [inhibitor, single point]
CCC(=O)NC(c1cccs1)c1ccc2cccnc2c1O (stereo not drawn) | inactive
CCc1ccc(NC(=O)C(NS(=O)(=O)c2cccs2)C(C)C)cc1 (stereo not drawn) | inactive
CCCCCCCCCCCCN1[C@@H](CC(=O)OC)c2cc(F)cc(F)c2S1(=O)=O | inactive
